Results are given in words; binding and its absence hold for the method and conditions named. Some entries that bind do so weakly or less than the wild type. For some of these results: Tags and fused reporters may be left off the sequences shown.

Our source for the binding values is publication PMC9318647, “Human and Bacterial Toll-Interleukin Receptor Domains Exhibit Distinct Dynamic Features and Functions” (Molecules, 2022).

For assay [1], the target named is TLR2-TIR C713A mutant (human) (UniProt O60603). Nature of the assay: SEC; analytical Superose-12; 50 mM Na2HPO4, pH 6.5, 150 mM NaCl, 1 mM DTT; TLR1-TIR and TLR2-TIR also after 30 min in 50 mM DTT (homodimers minimized); both purified.
The target in assay [2] is T1, GST-TLR1-TIR chimera (human) (UniProt Q15399).
T1 sequence: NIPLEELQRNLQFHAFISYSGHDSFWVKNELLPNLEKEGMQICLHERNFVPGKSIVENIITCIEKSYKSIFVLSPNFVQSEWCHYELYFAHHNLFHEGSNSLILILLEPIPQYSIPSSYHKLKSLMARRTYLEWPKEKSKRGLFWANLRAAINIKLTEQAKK
Nature of the assay: pull-down; 250 μM GST-TLR1 or GST alone incubated with 300 μM untagged TIR domain in 10 mM DTT, diluted to about 200 μM DTT, overnight at 4 °C, loaded on GST beads, eluted with 30 mM glutathione; disulfide-mediated cross-linking; both purified.

Assay [3] addresses T2, human IL-1R8 TIR domain (IL-1R8-TIR), residues 160-310 (human) (UniProt Q6IA17).
T2 sequence: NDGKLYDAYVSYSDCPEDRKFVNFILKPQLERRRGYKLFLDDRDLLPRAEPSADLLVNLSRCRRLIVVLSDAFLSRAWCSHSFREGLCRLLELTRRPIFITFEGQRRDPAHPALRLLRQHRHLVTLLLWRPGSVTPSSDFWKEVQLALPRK
Nature of the assay: NMR titration; 15N-labeled IL-1R8-TIR in the presence of TLR1-TIR or TLR2-TIR; chemical shift perturbations; high micromolar concentrations; both purified.

In assay [4] the target is TLR1-TIR C707A mutant (human) (UniProt Q15399). Kind of assay: SEC; analytical Superose-12; 50 mM Na2HPO4, pH 6.5, 150 mM NaCl, 1 mM DTT; TLR1-TIR and TLR2-TIR also after 30 min in 50 mM DTT (homodimers minimized); both purified. On the technique in general: SEC sorts molecules by how far they enter the pores of the column.
Assay [5] concerns the target T2, human IL-1R8 TIR domain (IL-1R8-TIR), residues 160-310 (human). The assay is described as above.

“TLR2-TIR C713A mutant (from UniProt O60603 633-784) (domain or fragment)”: the binding entry is on record as “no binding” in assay [1] and “binds” in assay [2].

B1: human TLR1 TIR domain (TLR1-TIR), residues 625-786, untagged (domain or fragment, UniProt Q15399 625-786, looked up)
chain: NIPLEELQRNLQFHAFISYSGHDSFWVKNELLPNLEKEGMQICLHERNFVPGKSIVENIITCIEKSYKSIFVLSPNFVQSEWCHYELYFAHHNLFHEGSNSLILILLEPIPQYSIPSSYHKLKSLMARRTYLEWPKEKSKRGLFWANLRAAINIKLTEQAKK
notes: human TLR1, NCBI NP_003254.2, the entire intracellular TIR region of residues 625-786; Elutes as distinct dimer and monomer peaks on Superose-12; also called untagged TLR1-TIR
In the case of B1, the binding result is given as “binds weakly” in assay [3] and “binds” in assay [2].

B2: TLR1-TIR C707A mutant (domain or fragment, UniProt Q15399 625-786)
chain: NIPLEELQRNLQFHAFISYSGHDSFWVKNELLPNLEKEGMQICLHERNFVPGKSIVENIITCIEKSYKSIFVLSPNFVQSEWAHYELYFAHHNLFHEGSNSLILILLEPIPQYSIPSSYHKLKSLMARRTYLEWPKEKSKRGLFWANLRAAINIKLTEQAKK
With B2, the binding entry in assay [4] was “no binding”; in assay [2] it was “binds”.

B3: human TLR2 TIR domain (TLR2-TIR), residues 633-784, untagged (domain or fragment, UniProt O60603 633-784, looked up)
chain: KAPSRNICYDAFVSYSERDAYWVENLMVQELENFNPPFKLCLHKRDFIPGKWIIDNIIDSIEKSHKTVFVLSENFVKSEWCKYELDFSHFRLFDENNDAAILILLEPIEKKAIPQRFCKLRKIMNTKTYLEWPMDEAQREGFWVNLRAAIKS
notes: human TLR2, NCBI NP_001305716.1, the entire intracellular TIR region of residues 633-784; 15N-labelled in the NMR experiments; Elutes as distinct dimer and monomer peaks on Superose-12; also called 15N-TLR2-TIR
On to B3, for which the binding entry is “binds weakly” in assay [3] and “binds” in assay [2].

B4: human IL-1R8 TIR domain (IL-1R8-TIR), residues 160-310 (domain or fragment, UniProt Q6IA17 160-310)
chain: NDGKLYDAYVSYSDCPEDRKFVNFILKPQLERRRGYKLFLDDRDLLPRAEPSADLLVNLSRCRRLIVVLSDAFLSRAWCSHSFREGLCRLLELTRRPIFITFEGQRRDPAHPALRLLRQHRHLVTLLLWRPGSVTPSSDFWKEVQLALPRK
Turning to B4, the binding entry is “no binding” in assay [5] and “binds” in assay [2].
